Consider 57 molecules from paper PMC4336329 (PLoS ONE, 2015).

About 14,000 (4.5%) of roughly 310,000 compounds showed an effect of 50% or more. Effects have a minus sign here. This is one part of the list.
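Also: peak tail current of the secondary pulse compared with the same well before compound.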

Chain of human ether-à-go-go-related gene (hERG) potassium channel (Q12809 whole entry, looked up): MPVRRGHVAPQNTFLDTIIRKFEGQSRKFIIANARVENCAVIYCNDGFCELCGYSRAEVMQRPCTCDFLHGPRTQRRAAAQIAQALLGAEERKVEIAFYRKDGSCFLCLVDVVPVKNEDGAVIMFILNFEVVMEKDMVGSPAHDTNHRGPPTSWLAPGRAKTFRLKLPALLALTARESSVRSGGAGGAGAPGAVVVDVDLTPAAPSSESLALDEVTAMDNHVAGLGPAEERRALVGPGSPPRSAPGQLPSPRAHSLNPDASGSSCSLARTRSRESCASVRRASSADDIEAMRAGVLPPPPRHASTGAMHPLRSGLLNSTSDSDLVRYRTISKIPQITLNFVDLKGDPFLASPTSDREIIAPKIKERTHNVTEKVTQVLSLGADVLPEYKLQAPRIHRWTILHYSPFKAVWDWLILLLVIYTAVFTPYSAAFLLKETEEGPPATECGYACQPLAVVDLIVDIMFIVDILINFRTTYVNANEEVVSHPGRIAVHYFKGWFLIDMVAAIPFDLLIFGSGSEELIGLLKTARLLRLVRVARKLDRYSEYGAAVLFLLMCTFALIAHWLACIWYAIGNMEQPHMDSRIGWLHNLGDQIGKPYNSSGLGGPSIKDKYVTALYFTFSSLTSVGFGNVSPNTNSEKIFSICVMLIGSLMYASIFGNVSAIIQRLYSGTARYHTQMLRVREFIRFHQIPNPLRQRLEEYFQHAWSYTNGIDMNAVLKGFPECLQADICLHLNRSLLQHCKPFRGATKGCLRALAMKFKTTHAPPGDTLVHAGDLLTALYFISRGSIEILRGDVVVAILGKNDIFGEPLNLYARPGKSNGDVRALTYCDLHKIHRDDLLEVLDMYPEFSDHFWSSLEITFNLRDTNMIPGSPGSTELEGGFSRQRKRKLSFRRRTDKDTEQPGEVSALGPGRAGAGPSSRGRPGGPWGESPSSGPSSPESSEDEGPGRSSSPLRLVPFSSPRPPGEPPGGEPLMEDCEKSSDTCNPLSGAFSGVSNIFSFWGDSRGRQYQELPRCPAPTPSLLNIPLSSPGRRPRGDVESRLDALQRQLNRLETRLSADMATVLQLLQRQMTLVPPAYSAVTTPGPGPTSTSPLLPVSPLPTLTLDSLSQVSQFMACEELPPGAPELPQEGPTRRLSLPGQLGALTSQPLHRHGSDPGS

This assay has as its target human ether-à-go-go-related gene (hERG) potassium channel (human, UniProt Q12809). The assay is described as follows: primary screen, population patch clamp on CHO cells stably expressing hERG.
For `CCC(C)(C)NC(=O)C1CCCN1C(=O)NC1CCCCC1` (stereo not drawn), the “hERG current change (%, negative = inhibition) at 10uM” value is recorded as 19.6%. In the case of `COc1cccc(CNCCN2CCOCC2)c1OC`, the “hERG current change (%, negative = inhibition) at 10uM” value is -2.63%. Turning to `CC1=[N+](CC(=O)c2ccccc2)CCn2cccc21.[Br-]`, the “hERG current change (%, negative = inhibition) at 10uM” value was determined as 13.9%. As for `C=CCc1cc(OC)ccc1OCCCCn1cncn1.O=C(O)C(=O)O`, the “hERG current change (%, negative = inhibition) at 10uM” value is given as 6.98%.

Consider `CCC(C)NC(=O)Cc1c(C)c2cc3c(cc2oc1=O)OC(C)(C)CC3` (stereo not drawn), for which the “hERG current change (%, negative = inhibition) at 10uM” value is given as 18.9%. As for `COC(c1ccccc1)c1nnc(CCC(=O)N2CCN(Cc3cccs3)CC2)o1` (stereo not drawn), the “hERG current change (%, negative = inhibition) at 10uM” value is listed as 2.91%. With `CCn1c(=O)n(CC)c2cc(N3CCCC3)c(NC(=O)c3ccccc3F)cc21`, the “hERG current change (%, negative = inhibition) at 10uM” value is 1.45%.

On to `CC(C)Nc1nc(Cl)nc(NCCOc2ccccc2)n1`, for which the “hERG current change (%, negative = inhibition) at 10uM” value is 10.4%. `O=C(O)Cc1ccc(NC(=O)C2CCCCC2C(=O)O)cc1` (stereo not drawn): the “hERG current change (%, negative = inhibition) at 10uM” value is listed as 21.6%. For the molecule `CCN(CC)CCCNC(=S)Nc1ccc(Br)cc1`, the “hERG current change (%, negative = inhibition) at 10uM” value was -53.2%. In the case of `COC(=O)c1ccc(C(=O)NC(=S)Nc2nc3c(s2)CC(C)CC3)cc1` (stereo not drawn), the “hERG current change (%, negative = inhibition) at 10uM” value worked out at 2.73%. `CC(=O)OC1COC(N2CCc3cc(Br)c([N+](=O)[O-])cc32)C(OC(C)=O)C1OC(C)=O` (stereo not drawn): the “hERG current change (%, negative = inhibition) at 10uM” value amounted to 5.8%. As for `OC(C#CCCN1CCCCC1)(c1ccccc1)c1ccccc1`, the “hERG current change (%, negative = inhibition) at 10uM” value is reported as -53.8%. Take `N#Cc1ccc(NC(=O)CN2CCCCCC2)cc1Cl`: the “hERG current change (%, negative = inhibition) at 10uM” value is -21.3%. The figure for `CCOc1ccc(C(=O)Nc2cc(-c3nc4ccccc4[nH]3)ccc2C)cc1[N+](=O)[O-]` is -34.8%; for `CCOc1nnnc2c1sc1nc(N3CCOCC3)c3c(c12)CCCC3` it is -3.1%. The figure for `COc1ccc(N(CC(=O)Nc2ccccc2C)S(=O)(=O)c2c(C)[nH]c(=O)[nH]c2=O)cc1` is 16%; for `CCCCn1c(N)c(N(CCOC)C(=O)c2ccc(F)c(S(=O)(=O)N3CCOCC3)c2)c(=O)[nH]c1=O` it is 3.51%; for `CC(NC(=O)C1CCCN(S(=O)(=O)c2cccc3nonc23)C1)c1ccccc1` (stereo not drawn) it is -29.9%.

Take `COCCCN(C(=S)NC(=O)c1ccc(Br)cc1)c1c(N)n(Cc2ccccc2)c(=O)[nH]c1=O`: the “hERG current change (%, negative = inhibition) at 10uM” value is listed as 13.2%.

As to `CCOC(=O)c1ccc(NCc2nc3ccccc3n2C)cc1`, the “hERG current change (%, negative = inhibition) at 10uM” value is -30.5%. As for `C=CCn1c(SCC(=O)c2ccc(OC)cc2)nnc1C(C)NC(=O)c1cccs1` (stereo not drawn), the “hERG current change (%, negative = inhibition) at 10uM” value is recorded as -27.6%. Take `CCCCN(C)CCNC(=O)C(=O)c1c(C)[nH]c2ccccc12`: the “hERG current change (%, negative = inhibition) at 10uM” value was -16.9%. On to `Fc1ccc(NC(=S)NCc2ccccn2)cc1`, for which the “hERG current change (%, negative = inhibition) at 10uM” value is on record as 16.1%. The figure for `O=C(CCNC(=O)Cn1ccc2ccccc2c1=O)NCCN1CCN(c2ccccc2F)CC1` is 6.8%. The figure for `Cc1ccc(C2NC(=NCc3ccccc3)Nc3nc(C)cc(=O)n32)cc1` (stereo not drawn) is 6.16%; for `CC(NC(=O)COC(=O)C1CCC1)c1ccccc1` (stereo not drawn) it is 0.753%; for `COc1ccc(Nc2nc(OC)nc(N3CCOCC3)n2)cc1` it is -21.1%. Turning to `CNC(=O)c1c(C)[nH]c(=S)c(C#N)c1-c1ccco1`, the “hERG current change (%, negative = inhibition) at 10uM” value stood at 11.4%. For `Cc1c2cnn(CC(=O)NCc3ccccn3)c(=O)c2c(C)n1Cc1ccccc1`, the “hERG current change (%, negative = inhibition) at 10uM” value is -8.42%. Take `CCOC(=O)CNC(=O)C1(c2ccccc2)CCCC1`: the “hERG current change (%, negative = inhibition) at 10uM” value amounted to 8.68%. The same measure for `COc1cc(Br)cc(/C=N/NC(=O)Cc2ccccc2)c1O`: 9.76%. `O=C(CO/N=C/c1ccc(Cl)cc1Cl)NNC(=O)c1cccc(Cl)c1`: the “hERG current change (%, negative = inhibition) at 10uM” value worked out at 18.2%. The figure for `O=[N+]([O-])c1ccc(/C=N/n2cnc3ccccc32)s1` is -14.2%; for `CC(=O)N1CCN2C(=O)C1CCCC(=O)c1cc(C3CCCCC3)ccc12` (stereo not drawn) it is -36.4%; for `CC(=O)N1N=C(N)SC12CCCC2` it is 22%.

Consider `CC1CN(Cc2cc(=O)n3ccsc3n2)CC(C)O1` (stereo not drawn), for which the “hERG current change (%, negative = inhibition) at 10uM” value was determined as 0.851%. On to `COc1ccc(-c2cc(C(F)(F)F)nc(S(C)(=O)=O)n2)cc1OC`, for which the “hERG current change (%, negative = inhibition) at 10uM” value was 7.27%. As to `COCCNC(=O)Cn1ccc2cc(S(=O)(=O)N3CCCCC3)ccc21`, the “hERG current change (%, negative = inhibition) at 10uM” value is reported as -4.37%.

On to `O=C(NCc1ccco1)C(=O)NCc1ccccc1Cl`, for which the “hERG current change (%, negative = inhibition) at 10uM” value came out at 3.36%. Regarding `CNC(=O)c1cc(C(=O)c2ccccc2C(F)(F)F)c[nH]1`, the “hERG current change (%, negative = inhibition) at 10uM” value was determined as 6.24%. Regarding `CCCCCCc1nc(C(N)=O)c2[nH]c(=O)n(-c3ccc(OC)cc3OC)c2n1`, the “hERG current change (%, negative = inhibition) at 10uM” value came out at 12.4%. In the case of `CCC(CC)C(=O)Nc1cc(C(=O)OC)cc(C(=O)OC)c1`, the “hERG current change (%, negative = inhibition) at 10uM” value is recorded as -16.7%.

`COc1ccc(-c2cc(C(=O)N(C)Cc3ccccc3F)c3ccccc3n2)cc1OC`: the “hERG current change (%, negative = inhibition) at 10uM” value is reported as -10.6%. For the molecule `Cn1c(=O)n(C)c2cc(NC(=O)COc3ccccc3)ccc21`, the “hERG current change (%, negative = inhibition) at 10uM” value was found to be 1.63%.

Turning to `COc1cc(CNn2c(C)n[nH]c2=S)cc(Cl)c1OCc1ccc(F)cc1`, the “hERG current change (%, negative = inhibition) at 10uM” value is given as 14.4%. As for `O=C(O)CC(CC(=O)Nc1ccc(C(=O)O)cc1)c1ccccc1` (stereo not drawn), the “hERG current change (%, negative = inhibition) at 10uM” value worked out at 12.9%. In the case of `COc1ccccc1N1CCN(S(=O)(=O)CCNC(=O)c2cc(OC)c(OC)c(OC)c2)CC1`, the “hERG current change (%, negative = inhibition) at 10uM” value worked out at 19%. Consider `Cc1nn(-c2ccccc2)c(C)c1/C=N/NC(=O)CSc1nnc(SCc2ccccc2Cl)s1`, for which the “hERG current change (%, negative = inhibition) at 10uM” value was -14.5%. As to `Cc1cc(C)c2c(-n3cccc3)c(C(=O)O)sc2n1`, the “hERG current change (%, negative = inhibition) at 10uM” value is 13.3%.

As for `CN(CC(=O)Nc1ccccc1Br)C(=O)COc1cccc2c1OC(C)(C)C2`, the “hERG current change (%, negative = inhibition) at 10uM” value is listed as -2.3%. As for `O=C(CCC(=O)Nc1cc(C(F)(F)F)ccc1Cl)N/N=C\c1cc([N+](=O)[O-])ccc1O`, the “hERG current change (%, negative = inhibition) at 10uM” value was -3.26%.

With `Nc1c(C(=O)OCC(=O)Nc2ccc(OC(F)F)cc2)[nH]c(=O)[nH]c1=O`, the “hERG current change (%, negative = inhibition) at 10uM” value is listed as 4.54%.

As for `CC1CN(C(=O)COc2coc(CN3CCc4ccccc4C3)cc2=O)CC(C)O1` (stereo not drawn), the “hERG current change (%, negative = inhibition) at 10uM” value stood at 2.75%. Turning to `COc1ccc(C2=NS(=O)(=O)N(C)C(C(=O)N3CCC(C(N)=O)CC3)=C2)cc1`, the “hERG current change (%, negative = inhibition) at 10uM” value was -12.2%.

With `COc1ccc(OCC(O)Cn2c(N3CCCCC3)nc3c2c(=O)n(C)c(=O)n3C)cc1` (stereo not drawn), the “hERG current change (%, negative = inhibition) at 10uM” value is on record as -4.8%. In the case of `NC(=S)Nc1ccc(C(F)(F)F)cc1Cl`, the “hERG current change (%, negative = inhibition) at 10uM” value is listed as 0.127%.
